Results reported in the supplement of paper PMC8728848.
The other results are listed elsewhere or left out.

Columns and labels:
Experiment in all cases: glycan array binding signal (z-score within array); higher = stronger binding
Settings in all cases: glycan notation: IUPAC condensed, linker removed
[1] = target: Gal(b1-3)GlcNAc(b1-2)Man(a1-3)[Gal(b1-3)GlcNAc(b1-2)Man(a1-6)]Man(b1-4)GlcNAc(b1-4)[Fuc(a1-6)]GlcNAc
Outline: (§1)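 From the Consortium for Functional Glycomics database, 3228 arrays were curated, keeping only those whose protein sequence was available. Binding is given as a within-array Z-score averaged across arrays sharing a protein sequence and across linkers. Negative Z-scores can be read as non-binding.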

[2] = target: Gal(b1-3)GlcNAc(b1-3)Gal(b1-3)GlcNAc
Outline: as §1

[3] = target: Gal(b1-3)GlcNAc(b1-3)Gal(b1-4)Glc
Outline: as §1

[4] = target: Gal(b1-3)GlcNAc(b1-3)Gal(b1-4)GlcNAc
Outline: as §1

[5] = target: Gal(b1-3)GlcNAc(b1-3)Gal(b1-4)GlcNAc(b1-6)[Gal(b1-3)GlcNAc(b1-3)]Gal(b1-4)Glc
Outline: as §1

[6] = target: Gal(b1-3)GlcNAc(b1-3)Gal(b1-4)[Fuc(a1-3)]GlcNAc(b1-6)[Gal(b1-3)GlcNAc(b1-3)]Gal(b1-4)Glc
Outline: as §1

[7] = target: Gal(b1-3)GlcNAc(b1-3)GalNAc
Outline: as §1

[8] = target: Gal(b1-3)GlcNAc(b1-6)Gal(b1-4)GlcNAc
Outline: as §1

[9] = target: Gal(b1-3)[Fuc(a1-4)]GlcNAc
Outline: as §1

[10] = target: Gal(b1-3)[Fuc(a1-4)]GlcNAc(b1-2)Man(a1-3)[Gal(b1-3)[Fuc(a1-4)]GlcNAc(b1-2)Man(a1-6)]Man(b1-4)GlcNAc(b1-4)GlcNAc
Outline: as §1

[11] = target: Gal(b1-3)[Fuc(a1-4)]GlcNAc(b1-2)Man(a1-3)[Gal(b1-3)[Fuc(a1-4)]GlcNAc(b1-2)Man(a1-6)]Man(b1-4)GlcNAc(b1-4)[Fuc(a1-6)]GlcNAc
Outline: as §1

[12] = target: Gal(b1-3)[Fuc(a1-4)]GlcNAc(b1-3)Gal(b1-3)[Fuc(a1-4)]GlcNAc
Outline: as §1

[13] = target: Gal(b1-3)[Fuc(a1-4)]GlcNAc(b1-3)Gal(b1-4)GlcNAc
Outline: as §1

[14] = target: Gal(b1-3)[Fuc(a1-4)]GlcNAc(b1-3)Gal(b1-4)[Fuc(a1-3)]GlcNAc
Outline: as §1

[15] = target: Gal(b1-3)[GlcNAc(b1-6)]GalNAc
Outline: as §1

[16] = target: Gal(b1-3)[Neu5Ac(a2-6)]GalNAc
Outline: as §1

[17] = target: Gal(b1-3)[Neu5Ac(a2-6)]GlcNAc(b1-6)Gal(b1-4)Glc
Outline: as §1

[18] = target: Gal(b1-3)[Neu5Ac(b2-6)]GalNAc
Outline: as §1

[19] = target: Gal(b1-4)GalNAc(a1-3)[Fuc(a1-2)]Gal(b1-4)GlcNAc
Outline: as §1

[20] = target: Gal(b1-4)GalNAc(b1-3)[Fuc(a1-2)]Gal(b1-4)GlcNAc
Outline: as §1

Gal(b1-4)Glc = target: Gal(b1-4)Glc
Outline: as §1

Gal(b1-4)Glc6S = target: Gal(b1-4)Glc6S
Outline: as §1

Gal(b1-4)GlcNAc = target: Gal(b1-4)GlcNAc
Outline: as §1

[21] = target: Gal(b1-4)GlcNAc(a1-6)Gal(b1-4)GlcNAc
Outline: as §1

[22] = target: Gal(b1-4)GlcNAc(b1-2)Man(a1-3)Man(b1-4)GlcNAc(b1-4)GlcNAc
Outline: as §1

[23] = target: Gal(b1-4)GlcNAc(b1-2)Man(a1-3)[Gal(b1-4)GlcNAc(b1-2)Man(a1-6)]Man(b1-4)GlcNAc(b1-4)GlcNAc
Outline: as §1

[24] = target: Gal(b1-4)GlcNAc(b1-2)Man(a1-3)[Gal(b1-4)GlcNAc(b1-2)Man(a1-6)]Man(b1-4)GlcNAc(b1-4)[Fuc(a1-6)]GlcNAc
Outline: as §1

[25] = target: Gal(b1-4)GlcNAc(b1-2)Man(a1-3)[GlcNAc(b1-2)Man(a1-6)]Man(b1-4)GlcNAc(b1-4)GlcNAc
Outline: as §1

[26] = target: Gal(b1-4)GlcNAc(b1-2)Man(a1-3)[Man(a1-6)]Man(b1-4)GlcNAc(b1-4)GlcNAc
Outline: as §1

[27] = target: Gal(b1-4)GlcNAc(b1-2)Man(a1-6)Man(b1-4)GlcNAc(b1-4)GlcNAc
Outline: as §1

[28] = target: Gal(b1-4)GlcNAc(b1-2)Man(a1-6)[GlcNAc(b1-2)Man(a1-3)]Man(b1-4)GlcNAc(b1-4)GlcNAc
Outline: as §1

[29] = target: Gal(b1-4)GlcNAc(b1-2)Man(a1-6)[Man(a1-3)]Man(b1-4)GlcNAc(b1-4)GlcNAc
Outline: as §1

[30] = target: Gal(b1-4)GlcNAc(b1-2)[Gal(b1-4)GlcNAc(b1-4)]Man(a1-3)[Gal(b1-4)GlcNAc(b1-2)Man(a1-6)]Man(b1-4)GlcNAc(b1-4)GlcNAc
Outline: as §1

[31] = target: Gal(b1-4)GlcNAc(b1-2)[Gal(b1-4)GlcNAc(b1-4)]Man(a1-3)[Gal(b1-4)GlcNAc(b1-2)[Gal(b1-4)GlcNAc(b1-6)]Man(a1-6)]Man(b1-4)GlcNAc(b1-4)GlcNAc
Outline: as §1

[32] = target: Gal(b1-4)GlcNAc(b1-3)Gal(b1-3)GlcNAc
Outline: as §1

[33] = target: Gal(b1-4)GlcNAc(b1-3)Gal(b1-4)Glc
Outline: as §1

[34] = target: Gal(b1-4)GlcNAc(b1-3)Gal(b1-4)GlcNAc
Outline: as §1

[35] = target: Gal(b1-4)GlcNAc(b1-3)Gal(b1-4)GlcNAc(b1-3)Gal(b1-4)GlcNAc
Outline: as §1

B1: ZG-16 (Homo sapiens), O60844 (protein)
chain: IQARSSSYSGEYGSGGGKRFSHSGNQLDGPITALRVRVNTYYIVGLQVRYGKVWSDYVGGRNGDLEEIFLHPGESVIQVSGKYKWYLKKLVFVTDKGRYLSFGKDSGTSFNAVPLHPNTVLRFISGRSGSLIDAIGLHWDVYPTSCSRCSRGSDDDDKAEPRGPTIKPCPPCKCPAPNLLGGPSVFIFPPKIKDVLMISLSPIVTCVVVDVSEDDPDVQISWFVNNVEVHTAQTQTHREDYNSTLRVVSALPIQHQDWMSGKEFKCKVNNKDLPAPIERTISKPKGSVRAPQVYVLPPPEEEMTKKQVTLTCMVTDFMPEDIYVEWTNNGKTELNYKNTEPVLDSDGSYFMYSKLRVEKKNWVERNSYSCSVVHEGLHNHHTTKSFSRTPGKRTYHHHHHHARKLTR
glycan array binding signal (z-score) [1]: -0.177
glycan array binding signal (z-score) [2]: -0.209
glycan array binding signal (z-score) [3]: -0.226
glycan array binding signal (z-score) [4]: -0.194
glycan array binding signal (z-score) [5]: -0.221
glycan array binding signal (z-score) [6]: -0.161
glycan array binding signal (z-score) [7]: -0.187
glycan array binding signal (z-score) [8]: -0.214
glycan array binding signal (z-score) [9]: -0.207
glycan array binding signal (z-score) [10]: -0.203
glycan array binding signal (z-score) [11]: -0.202
glycan array binding signal (z-score) [12]: -0.204
glycan array binding signal (z-score) [13]: -0.207
glycan array binding signal (z-score) [14]: -0.232
glycan array binding signal (z-score) [15]: -0.188
glycan array binding signal (z-score) [16]: -0.184
glycan array binding signal (z-score) [17]: -0.169
glycan array binding signal (z-score) [18]: -0.126
glycan array binding signal (z-score) [19]: -0.173
glycan array binding signal (z-score) [20]: -0.232
glycan array binding signal (z-score) (Gal(b1-4)Glc): -0.208
glycan array binding signal (z-score) (Gal(b1-4)Glc6S): -0.199
glycan array binding signal (z-score) (Gal(b1-4)GlcNAc): -0.207
glycan array binding signal (z-score) [21]: -0.191
glycan array binding signal (z-score) [22]: -0.114
glycan array binding signal (z-score) [23]: 0.105
glycan array binding signal (z-score) [24]: -0.192
glycan array binding signal (z-score) [25]: -0.172
glycan array binding signal (z-score) [26]: -0.146
glycan array binding signal (z-score) [27]: -0.199
glycan array binding signal (z-score) [28]: -0.117
glycan array binding signal (z-score) [29]: -0.126
glycan array binding signal (z-score) [30]: -0.166
glycan array binding signal (z-score) [31]: -0.221
glycan array binding signal (z-score) [32]: 0.136
glycan array binding signal (z-score) [33]: -0.14
glycan array binding signal (z-score) [34]: -0.144
glycan array binding signal (z-score) [35]: 0.095
